{
  "source": "a collection of fitness landscapes (doi:10.1016/j.celrep.2020.107928)",
  "parents": {"B1": {"name": "Caulobacter ParB omega fusion; a variant is named by its letters at X, in order, B8GW30 (parent)", "chain": "MESVVVGEPGMSEGRRGLGRGLSALLGEVDAAPAQAPGEQLGGSREAPIEILQRNPDQPRRTFREEDLEDLSNSIREKGVLQPILVRPSPDTAGEYQIVAGERAWRAAQRAGLKTVPIMVRELDDLAVLEIGIIENVQRADLNVLEEALSYKVLMEKFERTQENIAQTIGKSXSHVANXMRLLXLPDEVQSYLVSGELTAXHARAIAAAADPVALAKQIIEGGLSVRETEALARKAPNLSAGKSKGGRPPRVKDTDTQALESDLSSVLGLDVSIDHRGSTGTLTITYATLEQLDDLCNRLTRGI"}},
  "note": "Whole data set: some 81,000 sequences, median “one-hybrid fitness for binding parS DNA” near -0.17, cut for the highest 2% near 0.51. The list shows a part of the results.",
  "data": [
    {"variants_of": "B1", "test": "one-hybrid fitness for binding parS DNA (scaled: cognate 1, non-cognate 0); higher = stronger binding", "details": "with parS DNA site", "method_in_brief": "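Pre- and post-selection plasmids were Illumina-sequenced, three replicate libraries were pooled, and any variant with under 10 reads was removed. The libraries were Caulobacter ParB with four specificity codons randomised, selected in E. coli USO through a HIS3 reporter whose site is 19 bp from the promoter. Cells grew 48 hours at 37°C on M9 without histidine, with 0.1 mM IPTG and 5 mM 3-AT. Fitness is the log change in variant-to-wild-type read ratio, rescaled against cognate and non-cognate.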", "values": [
      {"variant": "HTVL", "one-hybrid fitness for binding parS DNA": "≤ 0.2"},
      {"variant": "WNSR", "one-hybrid fitness for binding parS DNA": "≤ 0.2"},
      {"variant": "WQMR", "one-hybrid fitness for binding parS DNA": "≤ 0.2"},
      {"variant": "ESYT", "one-hybrid fitness for binding parS DNA": "≤ 0.2"},
      {"variant": "KCPI", "one-hybrid fitness for binding parS DNA": "≤ 0.2"},
      {"variant": "ARGF", "one-hybrid fitness for binding parS DNA": "≤ 0.2"},
      {"variant": "QLPM", "one-hybrid fitness for binding parS DNA": "≤ 0.2"},
      {"variant": "HPCH", "one-hybrid fitness for binding parS DNA": "≤ 0.2"},
      {"variant": "MVTL", "one-hybrid fitness for binding parS DNA": "≤ 0.2"},
      {"variant": "LDKT", "one-hybrid fitness for binding parS DNA": "≤ 0.2"},
      {"variant": "LHIT", "one-hybrid fitness for binding parS DNA": "≤ 0.2"},
      {"variant": "LHME", "one-hybrid fitness for binding parS DNA": "≤ 0.2"},
      {"variant": "FDSR", "one-hybrid fitness for binding parS DNA": "≤ 0.2"},
      {"variant": "LVRG", "one-hybrid fitness for binding parS DNA": "≤ 0.2"},
      {"variant": "YTRV", "one-hybrid fitness for binding parS DNA": "≤ 0.2"},
      {"variant": "MGCS", "one-hybrid fitness for binding parS DNA": "≤ 0.2"},
      {"variant": "SPIT", "one-hybrid fitness for binding parS DNA": "≤ 0.2"},
      {"variant": "AHGY", "one-hybrid fitness for binding parS DNA": "≤ 0.2"},
      {"variant": "NNSE", "one-hybrid fitness for binding parS DNA": "≤ 0.2"},
      {"variant": "VTMF", "one-hybrid fitness for binding parS DNA": "≤ 0.2"},
      {"variant": "MPYE", "one-hybrid fitness for binding parS DNA": "≤ 0.2"},
      {"variant": "WIAG", "one-hybrid fitness for binding parS DNA": "≤ 0.2"},
      {"variant": "LSCS", "one-hybrid fitness for binding parS DNA": "≤ 0.2"},
      {"variant": "MRQC", "one-hybrid fitness for binding parS DNA": "≤ 0.2"},
      {"variant": "LTTV", "one-hybrid fitness for binding parS DNA": "≤ 0.2"},
      {"variant": "PDIG", "one-hybrid fitness for binding parS DNA": "≤ 0.2"},
      {"variant": "MPQW", "one-hybrid fitness for binding parS DNA": "≤ 0.2"},
      {"variant": "KINY", "one-hybrid fitness for binding parS DNA": "≤ 0.2"},
      {"variant": "GSCT", "one-hybrid fitness for binding parS DNA": "≤ 0.2"},
      {"variant": "IQCG", "one-hybrid fitness for binding parS DNA": "≤ 0.2"},
      {"variant": "PIKR", "one-hybrid fitness for binding parS DNA": "≤ 0.2"},
      {"variant": "ATSC", "one-hybrid fitness for binding parS DNA": "≤ 0.2"},
      {"variant": "QKLI", "one-hybrid fitness for binding parS DNA": "≤ 0.2"},
      {"variant": "GTPA", "one-hybrid fitness for binding parS DNA": "≤ 0.2"},
      {"variant": "RSHL", "one-hybrid fitness for binding parS DNA": "≤ 0.2"},
      {"variant": "GYWF", "one-hybrid fitness for binding parS DNA": "≤ 0.2"},
      {"variant": "TLSM", "one-hybrid fitness for binding parS DNA": "≤ 0.2"},
      {"variant": "QGQV", "one-hybrid fitness for binding parS DNA": "≤ 0.2"},
      {"variant": "ANWD", "one-hybrid fitness for binding parS DNA": "≤ 0.2"},
      {"variant": "RINP", "one-hybrid fitness for binding parS DNA": "≤ 0.2"},
      {"variant": "TTHL", "one-hybrid fitness for binding parS DNA": "≤ 0.2"},
      {"variant": "NRWN", "one-hybrid fitness for binding parS DNA": "≤ 0.2"},
      {"variant": "LDMG", "one-hybrid fitness for binding parS DNA": "≤ 0.2"},
      {"variant": "TRRV", "one-hybrid fitness for binding parS DNA": "≤ 0.2"},
      {"variant": "IHGT", "one-hybrid fitness for binding parS DNA": "≤ 0.2"},
      {"variant": "KCLG", "one-hybrid fitness for binding parS DNA": "≤ 0.2"},
      {"variant": "ESPE", "one-hybrid fitness for binding parS DNA": "≤ 0.2"},
      {"variant": "RLPH", "one-hybrid fitness for binding parS DNA": "≤ 0.2"},
      {"variant": "QTFV", "one-hybrid fitness for binding parS DNA": "≤ 0.2"},
      {"variant": "ETNF", "one-hybrid fitness for binding parS DNA": "≤ 0.2"},
      {"variant": "GMIM", "one-hybrid fitness for binding parS DNA": "≤ 0.2"},
      {"variant": "RSMA", "one-hybrid fitness for binding parS DNA": 0.576},
      {"variant": "LGTV", "one-hybrid fitness for binding parS DNA": "≤ 0.2"},
      {"variant": "RRMM", "one-hybrid fitness for binding parS DNA": "≤ 0.2"},
      {"variant": "MVTV", "one-hybrid fitness for binding parS DNA": "≤ 0.2"},
      {"variant": "IVDC", "one-hybrid fitness for binding parS DNA": "≤ 0.2"},
      {"variant": "IRDS", "one-hybrid fitness for binding parS DNA": "≤ 0.2"},
      {"variant": "PGLV", "one-hybrid fitness for binding parS DNA": "≤ 0.2"},
      {"variant": "RRWY", "one-hybrid fitness for binding parS DNA": 0.374},
      {"variant": "ATVM", "one-hybrid fitness for binding parS DNA": "≤ 0.2"},
      {"variant": "MNLF", "one-hybrid fitness for binding parS DNA": "≤ 0.2"},
      {"variant": "GACR", "one-hybrid fitness for binding parS DNA": "≤ 0.2"},
      {"variant": "YPQT", "one-hybrid fitness for binding parS DNA": "≤ 0.2"},
      {"variant": "KVDR", "one-hybrid fitness for binding parS DNA": "≤ 0.2"},
      {"variant": "QIDI", "one-hybrid fitness for binding parS DNA": "≤ 0.2"},
      {"variant": "NKSW", "one-hybrid fitness for binding parS DNA": "≤ 0.2"},
      {"variant": "DRSA", "one-hybrid fitness for binding parS DNA": "≤ 0.2"},
      {"variant": "RFGF", "one-hybrid fitness for binding parS DNA": 0.209},
      {"variant": "GKKR", "one-hybrid fitness for binding parS DNA": "≤ 0.2"},
      {"variant": "TVTF", "one-hybrid fitness for binding parS DNA": "≤ 0.2"},
      {"variant": "PALL", "one-hybrid fitness for binding parS DNA": "≤ 0.2"},
      {"variant": "NMSG", "one-hybrid fitness for binding parS DNA": "≤ 0.2"},
      {"variant": "AEWG", "one-hybrid fitness for binding parS DNA": "≤ 0.2"},
      {"variant": "SWNY", "one-hybrid fitness for binding parS DNA": "≤ 0.2"},
      {"variant": "VGMM", "one-hybrid fitness for binding parS DNA": "≤ 0.2"},
      {"variant": "SWHR", "one-hybrid fitness for binding parS DNA": "≤ 0.2"},
      {"variant": "SNRR", "one-hybrid fitness for binding parS DNA": "≤ 0.2"},
      {"variant": "HQNP", "one-hybrid fitness for binding parS DNA": "≤ 0.2"},
      {"variant": "LVKE", "one-hybrid fitness for binding parS DNA": "≤ 0.2"},
      {"variant": "EMRF", "one-hybrid fitness for binding parS DNA": "≤ 0.2"},
      {"variant": "IRHA", "one-hybrid fitness for binding parS DNA": "≤ 0.2"},
      {"variant": "WNER", "one-hybrid fitness for binding parS DNA": "≤ 0.2"},
      {"variant": "HGDA", "one-hybrid fitness for binding parS DNA": "≤ 0.2"},
      {"variant": "RCIG", "one-hybrid fitness for binding parS DNA": 0.955},
      {"variant": "VQYC", "one-hybrid fitness for binding parS DNA": "≤ 0.2"},
      {"variant": "CPRQ", "one-hybrid fitness for binding parS DNA": "≤ 0.2"},
      {"variant": "NEHG", "one-hybrid fitness for binding parS DNA": "≤ 0.2"},
      {"variant": "KEVS", "one-hybrid fitness for binding parS DNA": "≤ 0.2"},
      {"variant": "IRAH", "one-hybrid fitness for binding parS DNA": "≤ 0.2"},
      {"variant": "PPRV", "one-hybrid fitness for binding parS DNA": "≤ 0.2"},
      {"variant": "TPFT", "one-hybrid fitness for binding parS DNA": "≤ 0.2"},
      {"variant": "NQPM", "one-hybrid fitness for binding parS DNA": "≤ 0.2"},
      {"variant": "RSDK", "one-hybrid fitness for binding parS DNA": "≤ 0.2"},
      {"variant": "EPAT", "one-hybrid fitness for binding parS DNA": "≤ 0.2"},
      {"variant": "CQTW", "one-hybrid fitness for binding parS DNA": "≤ 0.2"},
      {"variant": "QTHM", "one-hybrid fitness for binding parS DNA": "≤ 0.2"},
      {"variant": "QDNG", "one-hybrid fitness for binding parS DNA": "≤ 0.2"},
      {"variant": "PQDG", "one-hybrid fitness for binding parS DNA": "≤ 0.2"}
    ]}
  ]
}
